# Reference: paper PMC4336329 (PLoS ONE, 2015)
# The campaign covered roughly 310,000 compounds. About 14,000 (4.5%) showed an effect of 50% or more. The effect is printed as a negative number. The list shows a part of the results. Where a SMILES comes first, the peptide text is derived from it. [ ]: non-standard residue; d: D form. The star is where a group is joined. Phe(4-Me) = Cc1ccc(C[CH](N)C(=O)O)cc1; Bz = O=C(c1ccccc1)*
# Molecular target: human ether-à-go-go-related gene (hERG) potassium channel (human, UniProt Q12809)
# Experiment: primary screen, population patch clamp on CHO cells stably expressing hERG
# 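Note: peak tail current of the secondary pulse compared with the same well before compound.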
# Chain of human ether-à-go-go-related gene (hERG) potassium channel (Q12809 whole entry, looked up): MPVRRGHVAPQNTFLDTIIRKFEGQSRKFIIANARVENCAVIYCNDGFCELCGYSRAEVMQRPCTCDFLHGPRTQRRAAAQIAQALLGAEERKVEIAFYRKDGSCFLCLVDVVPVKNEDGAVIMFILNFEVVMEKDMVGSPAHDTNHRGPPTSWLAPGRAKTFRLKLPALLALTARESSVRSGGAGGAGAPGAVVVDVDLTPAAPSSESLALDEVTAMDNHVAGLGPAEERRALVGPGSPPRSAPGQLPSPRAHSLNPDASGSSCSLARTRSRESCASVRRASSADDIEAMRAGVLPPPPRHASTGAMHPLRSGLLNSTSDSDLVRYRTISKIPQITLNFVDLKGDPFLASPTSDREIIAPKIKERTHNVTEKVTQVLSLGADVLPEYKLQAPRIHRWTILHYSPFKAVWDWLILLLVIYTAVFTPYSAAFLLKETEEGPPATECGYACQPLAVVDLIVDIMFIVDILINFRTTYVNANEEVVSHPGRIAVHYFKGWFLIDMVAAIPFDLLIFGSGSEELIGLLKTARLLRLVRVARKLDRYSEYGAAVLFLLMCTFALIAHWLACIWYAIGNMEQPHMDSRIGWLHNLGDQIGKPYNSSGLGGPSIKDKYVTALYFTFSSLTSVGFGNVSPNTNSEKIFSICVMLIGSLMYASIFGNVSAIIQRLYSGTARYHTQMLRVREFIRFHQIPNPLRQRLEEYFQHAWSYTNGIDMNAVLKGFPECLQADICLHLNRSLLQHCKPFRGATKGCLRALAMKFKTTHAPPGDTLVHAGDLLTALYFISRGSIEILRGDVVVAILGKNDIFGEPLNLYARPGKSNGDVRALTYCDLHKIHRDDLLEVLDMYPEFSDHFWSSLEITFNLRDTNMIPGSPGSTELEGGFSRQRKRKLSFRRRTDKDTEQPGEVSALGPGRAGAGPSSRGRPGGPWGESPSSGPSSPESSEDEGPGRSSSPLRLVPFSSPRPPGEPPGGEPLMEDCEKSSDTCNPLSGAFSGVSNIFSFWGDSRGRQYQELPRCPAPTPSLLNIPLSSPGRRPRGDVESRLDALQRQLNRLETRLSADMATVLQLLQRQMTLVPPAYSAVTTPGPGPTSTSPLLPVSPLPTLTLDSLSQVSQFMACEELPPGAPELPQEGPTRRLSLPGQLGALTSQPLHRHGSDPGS
row,SMILES,"hERG current change (%, negative = inhibition) at 10uM"
1,Cc1oc(-c2ccccc2F)nc1CS(=O)(=O)CC(=O)NC(C)CCc1ccccc1 (centres unmarked),-32.2%
2,Cc1ccc(OCC(=O)OC(C)CN2CCCCC2)cc1.Cl (centres unmarked),12.2%
3,Cc1cc(/C=C2\SC(=O)NC2=O)c(C)n1-c1ccc(N2CCOCC2)cc1,7.07%
4,COc1cc(OC)cc(C(=O)NNC(=O)CNC(=O)c2ccc(Br)o2)c1,1.04%
5,COc1cc(CC(=O)NCCCc2ccccc2)cc(OC)c1OC,-7.1%
6,Nc1nnnn1N=C1CCCCC1,-38.6%
7,CCC(C)(C)n1nnnc1C(c1cc2cc3c(cc2[nH]c1=O)OCO3)N1CCCCC1 (centres unmarked),-21.1%
8,Cn1c(=O)c2c3c(sc2n2c(SCc4ccccc4)nnc12)CCCC3,-9.93%
9,Cc1ccc(NC(=O)Cc2ccc3c(c2)OCCO3)cc1S(=O)(=O)N1CCCCC1,21.2%
10,Fc1ccccc1CN1CCC(Cc2ccccc2)CC1,-24.4%
11,COc1ccc(OC)c(NC(=O)c2cc(-c3cc(Cl)ccc3O)n[nH]2)c1,4.33%
12,Cc1cc(NC(=O)c2ccc([N+](=O)[O-])cc2)n(C)n1,21.3%
13,CN(C)S(=O)(=O)c1cccc(COC(=O)C2=COCCO2)c1,9.47%
14,CCCSc1nnc(NC(=O)CCc2ccccc2)s1,20.5%
15,Cc1ccc(N2CC(C(=O)Nc3cc(C)on3)CC2=O)c(C)c1 (centres unmarked),10.7%
16,CC1Oc2ccccc2N(CC(=O)NC2CCCCC2)C1=O (centres unmarked),8.94%
17,COC(=O)C1(CCSC)NC(c2ccccc2F)C2C(=O)N(c3ccc4c(c3)OCCO4)C(=O)C21 (centres unmarked),10.1%
18,Clc1ccc(Cn2ncc3c(NCc4ccccc4)ncnc32)cc1,-1.94%
19,Cc1cccn2c(=O)c(C=O)c(Nc3ccc(S(N)(=O)=O)cc3)nc12,-10.9%
20,CCn1cc(C(=O)NCCc2ccc(C)cc2)c(=O)c2cc(S(=O)(=O)N(C)C)ccc21,14.8%
21,O=C(COc1ccc(S(=O)(=O)Nc2ccc(Cl)cc2)cc1)N1CCOCC1,-35.8%
22,C/C(=N\NC(=O)c1cc2ccccc2cc1O)c1cc2ccccc2o1,6.05%
23,CC(C)C(=O)N1CCN(c2ccc(NC(=O)c3ccco3)cc2Cl)CC1,-14.8%

row,SMILES,"hERG current change (%, negative = inhibition) at 10uM"
1,Cc1cccc(-c2cc(C(=O)N/N=C/c3cccnc3)c3ccccc3n2)c1,-16.2%
2,CCCCCCc1nc(C(N)=O)c2[nH]c(=O)n(-c3ccc(OCC)cc3)c2n1,-4.25%
3,CC(C)Cc1nc(NCCN2CCOCC2)c(C#N)c2c1COC(C)(C)C2,-3.41%
4,CCCCn1c(N)c(N(CCOC)C(=O)Cn2c(=O)cnc3ccccc32)c(=O)[nH]c1=O,6.9%
5,CC(=O)C1CCC2C3CCC4CC(O)CCC4(C)C3CCC12C (centres unmarked),-4.97%
6,C=CCn1cc(-c2cccc(Cl)c2)cc(C#N)c1=O,1.65%
7,CN1C(=O)C2(OCC(COc3ccc(Cl)cc3)O2)c2ccccc21 (centres unmarked),8.19%
8,Cc1ccc(C23CC4CC(CC(C(=O)NC(C(=O)O)C(C)C)(C4)C2)C3)cc1 (centres unmarked),14%
9,CCCCc1nnc(NC(=O)c2ccc(-n3cncn3)c([N+](=O)[O-])c2)s1,-19.7%
10,O=C(Nc1ccc(C(=O)O)cc1)/C(=C/c1cccc(Br)c1)NC(=O)c1ccco1,0.364%
11,CC1c2c([nH]c3ccccc23)CCC1C(=O)O (centres unmarked),22.4%
12,CC1CC(C)CN(CC(=O)Nc2ccc(S(N)(=O)=O)cc2)C1 (centres unmarked),13.7%
13,C=CCn1c(=O)/c(=C/c2cc(OC)c(OC)c(OC)c2)s/c1=C(/C#N)c1nc2ccccc2n1C,5.06%
14,O=C(O)c1ccc(N/N=C/c2cccc3nccnc23)cc1,21.4%
15,Cc1ccc(S(=O)(=O)NCCC(=O)N(C)Cc2cccs2)cc1,-14.2%
16,CCOC(=O)N1CCN(Cc2nc3cc(NC(=O)c4ccco4)ccc3n2C)CC1,-26.5%
17,C=CCn1c(-c2ccc(C)cc2)nc2ccccc21,-34.4%
18,CCCN(CC(=O)Nc1ccccc1C)C(=O)CCNC(=O)c1ccccc1Cl,-2.92%
19,O=S(=O)(c1ccc(F)cc1)N1CCN=C1SCc1cccnc1,-27.6%
20,COc1ccc(N2CCN(C(=S)Nc3cccc(C)c3)CC2)cc1,8.15%
21,COc1ccc(CCNCC2CCCO2)cc1.Cl (centres unmarked),0.687%
22,CCCCNc1nc(=S)n(-c2ccccc2)c(C)c1C(C)=O,5.44%
23,COCCNC(=O)c1cc(-c2ccncc2)nc2ccc(S(=O)(=O)N3CCOCC3)cc12,-32.3%

row,SMILES,"hERG current change (%, negative = inhibition) at 10uM"
1,COC(=O)C(Cc1ccccc1)N1CCS(=O)(=O)CC1 (centres unmarked),28.6%
2,CCn1c(/C=C/c2ccc(O)c(O)c2)nc2ccccc2c1=O,13.6%
3,N#Cc1ccc(S(=O)(=O)N2CCC(N3CCCCC3)CC2)cc1,-58.3%
4,O=C(Nc1nnc(-c2cccnc2)o1)c1ccccc1Cl,20.7%
5,CC(=O)Oc1cc(C(C)C)c(OCCN(C)C)cc1C.Cl,-3.74%
6,CC1=C(C(=O)Nc2ccccn2)C(c2cn(C)nc2C)C2=C(CCCC2=O)N1 (centres unmarked),5.68%
7,CC1(C)OC(c2ccccc2)=C/C(=C/C=N/NC(=O)c2ccncc2)O1,-4.96%
8,Nc1nnc(CC(=O)N/N=C/c2ccccc2OCc2ccc(F)cc2)s1,6.22%
9,Nc1ncc(Br)cc1S(=O)(=O)NCCC(=O)NCCc1ccc(Cl)cc1,6.84%
10,O=C(c1ccccc1)N1CCN(CCc2ccccn2)CC1,8.41%
11,O=CN(/C=C1\Sc2ccccc2C1=O)Cc1ccccc1,3.1%
12,Cc1cc(C)c2nc(N3CCC(C(=O)NCc4cccnc4)CC3)sc2c1,-79%
13,CCNC(=S)Nc1cc(OCC)c(NC(=O)c2ccco2)cc1OCC,-1.82%
14,CC(C)(C)c1nnc(NC(=O)c2cccnc2)s1,17.4%
15,CN1CCN(/N=C2/C(=O)Nc3ccc([N+](=O)[O-])cc32)CC1,-17.9%
16,CCOc1ccccc1N1CC(C(=O)NNC(=O)c2cc(OC)c(OC)c(OC)c2)CC1=O (centres unmarked),9%
17,Cc1ccccc1NS(=O)(=O)c1cc(C(=O)NCCSC2CCCCC2)ccc1C,15.1%
18,N#C/C(=C\Nc1ccc2cn[nH]c2c1)c1nc(-c2ccc(Cl)cc2)cs1,13.4%
19,COC(=O)CCSCC(=O)Nc1cc(C)on1,-14.4%
20,COc1ccc(S(=O)(=O)N2CCN(CCc3ccccc3)CC2)c(OC)c1,-25.6%
21,Cc1nc(-c2ccccc2O)n(S(=O)(=O)N(C)C)n1,-4.34%
22,N=C1c2ccccc2CN1c1ncccn1,-10.6%
23,Cc1ccc(S(=O)(=O)/N=C2/NC(=O)/C(=C\c3ccco3)S2)cc1,2.52%

row,SMILES,"hERG current change (%, negative = inhibition) at 10uM"
1,CCOc1ccccc1NC(=O)C1CCCN1C(=O)c1cccs1 (centres unmarked),7.83%
2,Nn1c(SCC(=O)NC2CCCc3ccccc32)nnc1-c1cccs1 (centres unmarked),-5.07%
3,Cc1ccsc1C1C2=C(CCCC2=O)Nc2ncnn21 (centres unmarked),-0.73%
4,CCOc1ccc(C(=O)Nc2ncn[nH]2)cc1,19.1%
5,COc1cccc(CC2(CO)CCN(Cc3cccn3-c3cccnc3)CC2)c1,-47.7%
6,Cc1c(C(=O)Nc2ccccc2F)sc2nc3n(c(=O)c12)CCC3,17%
7,CCN(CC)CCN(Cc1cc2cc(C)ccc2[nH]c1=O)C(=S)NCc1ccco1,-43.4%
8,N#CCCn1c(C2CCCCC2)nc2ccccc21,-1.35%
9,CC(C)c1ccc(NC(=S)N2CCN(S(=O)(=O)c3ccccc3)CC2)cc1,13.6%
10,CCc1ccc2c(CC(=O)Nc3cccc(S(=O)(=O)N4CCOCC4)c3)coc2c1,-0.796%
11,Cc1ccc(OC(=O)CCC(=O)N2CCc3ccccc32)cc1,1.95%
12,Cc1c(NS(=O)(=O)c2cc(C(=O)O)ccc2Cl)c(=O)n(-c2ccccc2)n1C,23.2%
13,CCOC(=O)C1=C(c2ccccc2)Nc2nc(C)nn2C1c1cccc(OC)c1OC (centres unmarked),5.72%
14,Cc1ccc(CC(NC(=O)c2ccccc2)C(=O)NC(Cc2ccccc2)C(=O)O)cc1 (centres unmarked) (Bz-[Phe(4-Me)]-Phe-OH; configuration not given here),8.66%
15,CCOCCCNC(=S)N1CCCC(c2nc3ccc(C)cc3[nH]2)C1 (centres unmarked),-4.41%
16,COc1ccc(Cn2c(=O)c3c(nc(NCCO)n3C)n(C)c2=O)cc1,12.3%
17,COc1cc([C@H]2[C@@H]3CCCC[C@]3(O)CCN2CC(=O)Nc2ccc(C)cc2)ccc1O,-6.06%
18,CCOc1cccc(OCCOCCN2CCCC2)c1,-10.1%
19,O=C(CCNS(=O)(=O)c1ccccc1)NCCCSc1ccccc1,-3.99%
20,Cc1cc(C)nc(SCCC(=O)Nc2cccc3ccccc23)n1,4.1%
